The source gives no read counts; variants with many changes may rest on few reads.

B1: CPEB3 Ribozyme (parent)
chain: UAACAGGGGGCCACAGCAGAAGCGUUCACGUCGCAGCCCCUGUCAGAUUCUGGUGAAUCUGCGAAUUCUGCUGUAUAUCUC

In the series the parent is B1. The series can be described thus: self-cleavage, relative activity (ratio to wild type); higher = more cleavage; in vitro, sequencing. The essentials: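 For each CPEB3 ribozyme variant, relative activity is its cleaved/total read fraction divided by the unmutated ribozyme's. Barcoded error-prone PCR libraries were transcribed by T7 RNA polymerase (5 hours, 37°C) and held in DNase I for 15 min before an EDTA stop, with cleavage occurring throughout. Template-switching reverse transcription and Illumina sequencing were used to read the RNAs. A 5-read minimum applied, and results are the mean of three batches.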
For UAACAGGGGGCCUCAGCAGAAGCGUUCACGUCGCAGCCCCAGUCAGAUUCUGGUGAAUCUGCGAAUUCUGCUGUAUACCUC [A13U U41A U78C], the self-cleavage worked out at 0.19.
Next, UAACAGGGGGCCUCAGCAGAAGCGUUCACGUCGCAGCCCCAGUCAGGUUCUGGUGGAUCUGCGAAUUCAGCUGUAUAUCUC [A13U U41A A47G A56G U69A]: 0.07; UAACAGGGGGCCUCAGCAGAAGCGUUCACGUCGCAGCCCCUGUCAGAUUCUGGAGAAUCUGCGAAUUCUACAGUAUAUCUC [A13U U54A G70A U72A]: 0.42.
The same measure for UAACAGGGGGCCUCAGCAGAAGCGUUCACGUCGCAGCCCCUGUCAGAUUCUGGCGAAUCUGCGAGUUCUGCUGUAUAUCUC [A13U U54C A65G]: 0.5.
For UAACAGGGGGCCUCAGCAGAAGCGUUCACGUCGCAGCCCCUGUCAGACUCUGGUGAAUCUGCGAACUCUGCUGUGUAUCUC [A13U U48C U66C A75G], the self-cleavage was 0.32.
Next, UAACAGGGGGCCUCAGCAGAAGCGUUCACGUCGCAGCCCCUGCCAGAUUCUGGUGGAUCUGCGGGUUCUGCUGUAUAACUC [A13U U43C A56G A64G A65G U78A]: 0.11.
The same measure for UAACAGGGGGCCUCAGCAGAAGCGUUCACGUCGCAGCCCCUGUCAGAUACUGGUGAAUCUGCGAAUUCUGCUGAAUAUCGC [A13U U49A U74A U80G]: 1.05; for UAACAGGGGGCCUCAGCAGAAGCGUUCACGUCGCAGCCCCUGCCAGAUUCUGGAGAAUCAGCGAAUUCAGCUGUAUAUCUC [A13U U43C U54A U60A U69A]: 0.13; for UAACAGGGGGCCUCAGCAGAAGCGUUCACGUCGCAGCCCCUGUCAGAUUCUGGCGAAUCUGCGAAUGCUGCUGUAUAUCUC [A13U U54C U67G]: 0.47.
The same measure for UAACAGGGGGCCUCAGCAGAAGCGUUCACGUCGCAGCCCCUGUCAGAUUCUGGCGAAUCUGCGAAUUCAGCUGUAUGUCUC [A13U U54C U69A A77G]: 0.89; for UAACAGGGGGCCUCAGCAGAAGCGUUCACGUCGCAGCCCCUGCCAGAUCCCGGUGAAUCUGCGAAUUCUGCUGUAUAUCUC [A13U U43C U49C U51C]: 0.18; for UAACAGGGGGCCUCAGCAGAAGCGUUCACGCCGCAGCCCCUGUCAGAUUCUGGUGAAUCUGCGAAUUCUGCUGUAAAUCUC [A13U U31C U76A]: 1.08.
Consider UAACAGGGGGCCUCAGCAGAAGCGUUCACGUCGCAGCCCCUGUCAGACUCUGGUGAAUCUGCGAAUUCUGCCGUAUAUCUC [A13U U48C U72C], for which the self-cleavage amounted to 0.27.
Regarding UAACAGGGGGCCUCAGCAGAAGCGUUCACGUCGCAGCCCCCGACAGAUUCUGGUGAAUCUGCGAAUUCCGCUGUAUAUCUC [A13U U41C U43A U69C], the self-cleavage is 0.37.
The same measure for UAACAGGGGGCCUCAGCAGAAGCGUUCACGUCGCAGCCCCUGUCAGAUUCUGGCGAAUCUGCGAAUUCUGCUGUAUGCCUC [A13U U54C A77G U78C]: 0.87; for UAACAGGGGGCCUCAGCAGAAGCGUUCACGUCGCAGCCCCAGUCAGAUUCUGGUGAAUCUGCGAAUUCUGCCGUAAAUCUC [A13U U41A U72C U76A]: 0.24; for UAACAGGGGGCCUCAGCAGAAGCGUUCACGUCGCAGCCCCUGUCAGAUUCCGGUGGAUCUGCGAAUUCUACUGUAUAUCCC [A13U U51C A56G G70A U80C]: 0.51.
For the variant UAACAGGGGGCCUCAGCAGAAGCGUUCACGUCGCAGCCCCCGUCAGAUUCCGGUGAAUCUGCGAAUUCUGCUGUAUAUCUC [A13U U41C U51C], the self-cleavage was 1.23.
UAACAGGGGGCCUCAGCAGAAGCGUUCACGCCGCAGCCCCUGUCAGAUUCUGGUGAAUCCGCGAAUACUGCUGUAUAUCUC [A13U U31C U60C U67A]: the self-cleavage is 0.2.
Next, UAACAGGGGGCCUCAGCAGAAGCGUUCACGUCGCAGCCCCUGACAGGUUCUGGUGAAUCUGCGGAUUCAGCUGUAUAUCUC [A13U U43A A47G A64G U69A]: 0.34; UAACAGGGGGCCUCAGCAGAAGCGUUCACGUCGCAGCCCCUGUCAGACUCUGGUGAAUCUGCGAAUCCUGCUGUAUAUCUC [A13U U48C U67C]: 0.22; UAACAGGGGGCCUCAGCAGAAGCGUUCACGUCGCAGCCCCUGUCAGAUUCCGGUGAAUCUGCGAAUUCUGCUGUAUAACUC [A13U U51C U78A]: 1.28.
As for UAACAGGGGGCCUCAGCAGAAGCGUUCACGUCGCAGCCCCUGCCAGAUUCUGGUGAAUCUGCGAAUUCUGCUGUAUCUCUC [A13U U43C A77C], the self-cleavage was found to be 0.75.
Next, UAACAGGGGGCCUCAGCAGAAGCGUUCACGUCGCAGCCCCUGUCAGAUUCUGGUGAAACUGCAAUUUCUGCUGUAUAUCUC [A13U U58A G63A A65U]: 0.45; UAACAGGGGGCCUCAGCAGAAGCGUUCACGUCGCAGCCCCCGUCAGAUUCUGGUGGACCUGCGAAUUCUGCUGUAUAUCUC [A13U U41C A56G U58C]: 0.22; UAACAGGGGGCCUCAGCAGAAGCGUUCACGUCGCAGCCCCUGUCAGAUUCUGGGGAAUCUGCGAGUUAUGCAGUAUAUCUC [A13U U54G A65G C68A U72A]: 0.14.
Next, UAACAGGGGGCCUCAGCAGAAGCGUUCACGUCGCAGCCCCUGACAGAUUAUUGUGAAUCUGCUAAUUCUGCUGUAUAUCUC [A13U U43A C50A G52U G63U]: 1.29.
Take UAACAGGGGGCCUCAGCAGAAGCGUUCACGUCGCAGCCCCUGUCAGAUACUGGUGAAUCUGCGAAUCCUGCUGUAUAUCUC [A13U U49A U67C]: the self-cleavage came to 0.2.
Next, UAACAGGGGGCCUCAGCAGAAGCGUUCACGUCGCAGCCCCUGUCAGAUUCAGGUGAAUCUGCGAAUUCUGCUGUAUAUCAC [A13U U51A U80A]: 1.27; UAACAGGGGGCCUCAGCAGAAGCGUUCACGUCGCAGCCCCUGUCAGAUCCUGGUGAAUCUGCGGAUUCUGCUGUAUAUCUC [A13U U49C A64G]: 0.19; UAACAGGGGGCCUCAGCAGAAGCGUUCACGUCGCAGCCCCUGACAGGUUCUGGUGAAUCUGCGAAUUCUGCUGUAUAUCAC [A13U U43A A47G U80A]: 1.25.
In the case of UAACAGGGGGCCUCAGCAGAAGCGUUCACGUCGCAGCCCCUGCCAGAUUCUGGUGAUUCUGCGAAUUCUGCCGUAUAUCUC [A13U U43C A57U U72C], the self-cleavage came to 0.13.
In the case of UAACAGGGGGCCUCAGCAGAAGCGUUCACGUCGCAGCCCCUGUCAGAUUCUGGAGAAUCUGCGAAUUCUGCAGUGUAUCUC [A13U U54A U72A A75G], the self-cleavage was 1.08.
The same measure for UAACAGGGGGCCUCAGCAGAAGCGUUCACGUCGCAGCCCCUGACAGAUUCUGGUGAAUCUGCGAAUUCUGCUGUGUAUCUC [A13U U43A A75G]: 1.06.

The values above are taken from the RNAGym collection of RNA variant scans (doi:10.1093/nar/gkz1192).
